# Experimental data reported in PubChem BioAssay AID1347073 (National Center for Advancing Translational Sciences (NCATS), 2019).
# Among all 45,000 compounds or so, about 200 (0.44%) were called active. Another 7% or so got no clear call; they are omitted. The call rests on the fitted dose curve; in most records, active means well fitted activation curve with a large enough effect; inconclusive means small, poorly fitted or top-dose-only effect; inactive means no such curve, though single readings can be large or run the other way. The list shows a part of the results.
# Assay: qHTS of TDP-43 Inhibitors: NCGC Sytravon Library Screen; further: nearly all actives have a fitted effect of over 55% in size; on growth rescue (activation): 0% is about no effect
# Conditions: yeast TDP-43 toxicity rescue, BacTiter-Glo growth, 24 h; series mostly up to 46.1 µM; growth rescue (activation): at the top concentration
# In short: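 TDP-43-expressing yeast, pregrown in raffinose, seeded at OD600 0.02 in galactose medium with compound for 24 hr at 30 deg C. Growth read by BacTiter-Glo luminescence, so rescue of toxicity appears as activation.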
# Potency means the concentration at half of the fitted maximal effect.
Compound,growth rescue (activation),Potency
CC(=O)Nc1ccc(S(=O)(=O)NNC(=O)COc2ccc(Cl)cc2Cl)cc1,inactive: -1.81%,–
Cn1c(N)c(C(=O)CSc2nnc(C3CC3)n2-c2ccccc2)c(=O)[nH]c1=O,inactive: 14.9%,–
COc1ccc(CNc2ncccn2)cc1OC,inactive: 19.6%,–
Cn1c(N/N=C/c2cc3ccccc3nc2Cl)nc2ccccc21,inactive: 0.225%,–
CCNC(=S)Nc1ccccc1-c1ccccc1,inactive: 12.1%,–
CSC(=S)N/N=C/c1ccccc1,inactive: -19.6%,–
COc1ccc2[nH]c(C(=O)N/N=C/c3ccc(OC)c(O)c3)cc2c1,inactive: 5.82%,–
COc1ccccc1-c1cnc(C(O)c2cccc(CN3CCCCC3)c2)[nH]1 (stereo not given),inactive: 5.6%,–
CCOc1ccc(-n2c(SCC(=O)Nc3cc(C)on3)nc3c(c2=O)SCC3)cc1,inactive: -11%,–
O=C(c1cccs1)c1no[n+]([O-])c1C(=O)c1cccs1,inactive: -95.5%,–
CCOC(=O)c1ccc(NC(=S)N2CCN(Cc3ccccc3)CC2)cc1,inactive: 7.98%,–
CCC1CCCCN1CC(O)Cn1c2ccccc2n2c(=O)cc(C)c(C#N)c12 (stereo not given),inactive: 13.4%,–
Cc1ccc(NC(=O)c2cc(-c3ccccc3O)n[nH]2)cc1C,inactive: 11.5%,–
O=C(CSc1nc2ccccc2s1)N1CCN(C(=O)c2ccco2)CC1,inactive: 0.147%,–
CN1CCc2c(sc(/N=C/c3cc(C(C)(C)C)ccc3O)c2C#N)C1,inactive: -1.62%,–
COc1cc([N+](=O)[O-])ccc1NC(=O)CCCOc1cc(C)ccc1C,inactive: 3.75%,–
COc1cc(NC(=O)CN2C(=O)C(c3ccc(C)cc3)=NC23CCCCC3)cc(OC)c1,inactive: 24.2%,–
COc1ccc(C2CC(=O)C(C=NCCN3CCN(C(=S)Nc4ccccc4)CC3)=C(O)C2)cc1 (stereo not given),inactive: 16.6%,–
O=C(CCSCCc1ccccn1)Nc1cc(F)ccc1F,inactive: 9.72%,–
O=C1NN(c2ccc(F)cc2)C(=O)/C1=C\C=C\c1ccco1,inactive: -6.23%,–
COC(=O)c1cccc(N(CC(=O)NC2CCCCC2)C(=O)CNC(=O)c2cccs2)c1,inactive: 10.1%,–
O=[N+]([O-])c1ccc(CNC2CCCc3ccccc32)cc1 (stereo not given),inactive: 2.74%,–

Compound,growth rescue (activation),Potency
N#CCCN(C1CCCCC1)S(=O)(=O)CCOc1ccccc1,inactive: -1.69%,–
CC(=O)Nc1ccc(S(=O)(=O)N2CCC(=O)Nc3ccccc32)cc1,inactive: 3.96%,–
Cc1cc(N/N=C/c2ccncc2)nc2ccccc12,inactive: 2.25%,–
O=C(NNC(=S)Nc1ccc(OC(F)F)cc1)c1cc2c(s1)CCCC2,inactive: 5.86%,–
N#CCc1ccc(Oc2ncc(C(F)(F)F)cc2Cl)cc1,inactive: -17.8%,–
CCCOc1nc(N)c(C#N)c(-c2ccccc2F)c1C#N,inactive: 13%,–
O=C(NCC(=O)N1CCN(C(=O)c2ccco2)CC1)c1ccc(Br)cc1,inactive: -2.68%,–
CCNC(=O)C1(C)CCN(C(=O)c2ccc(OC)c(OC)c2)C1 (stereo not given),inactive: 2.76%,–
COC(=O)c1ccc(-c2noc(CN(C)CC3CCCCO3)n2)cc1 (stereo not given),inactive: -8.57%,–
O=C(NC(=S)N1CCCCC1CO)c1cccs1 (stereo not given),inactive: -15.8%,–
Cc1ccsc1CN(C(=O)c1ccc(OCC(C)C)cc1)C1CCS(=O)(=O)C1 (stereo not given),inactive: 27.8%,–
COc1ccc(S(=O)(=O)CCc2nnc(NC(=O)c3ccc(F)cc3)s2)cc1,inactive: 14.2%,–
CCOc1cc(C)c(Cl)cc1S(=O)(=O)n1ccnc1,inactive: -9.04%,–
COc1ccc(CSc2n[nH]c(C)n2)cc1[N+](=O)[O-],inactive: 8.8%,–
COc1ccc(C(C#N)N2N=C(C)CC2c2ccccc2)cc1 (stereo not given),inactive: -3.42%,–
COCCNC(=O)c1cccc(NC(=O)C2=C(C)OCCS2)c1,inactive: -5.7%,–
COc1ccc2[nH]c(C)c(C(=O)CN3CCc4cc(OC)c(OC)cc4C3)c2c1,inactive: -4.37%,–
O=C(C1CCN(S(=O)(=O)c2ccccc2)CC1)N1CCCCCC1,inactive: 6.9%,–
CCNc1c(C(=O)O)ccc2c1C(=O)c1ccccc1C2=O,inactive: -1.54%,–
COc1ccc(OC)c(CN2CCN(C(=O)CNC(=O)c3ccccc3F)CC2)c1,inactive: -0.198%,–
O=C(NCc1ccc(F)cc1)C1Cc2ccccc2CN1C(=O)c1ccco1 (stereo not given),inactive: -3.75%,–
CCOC(=O)C(=O)N(Nc1ccc(C)cc1)c1ccc(C)cc1,inactive: 17%,–

Compound,growth rescue (activation),Potency
CCOc1ccccc1N(CC(=O)NC1CCCCC1)S(=O)(=O)c1ccc(C)cc1,inactive: 25.1%,–
NC(N)=N/N=C/c1ccc(OCc2ccccc2)c(OCc2ccccc2)c1,inactive: -0.103%,–
C/C(=C/C(=O)N1CCc2ccccc21)C(=O)O,inactive: 16.5%,–
COc1ccc(S(=O)(=O)N2CCN(C3CCCC(C)C3)CC2)cc1 (stereo not given),inactive: 9.28%,–
O=C1c2ccccc2C(=O)N1CCCCSc1nnc2ccccn12,inactive: 21.5%,–
COc1ccc(/C=N/N2CCOCC2)cc1O,inactive: 14.4%,–
OC[C@@H]1CN(CCN2CCOCC2)C[C@H](n2cnc3c(NC4CCC4)ncnc32)O1,inactive: 14.1%,–
Cc1cc(NC(=O)c2ccc3c(c2)OCO3)ccc1NC(=O)c1ccccc1,inactive: 8.75%,–
O=C(O)c1ccccc1SSc1ccccc1C(=O)O,inactive: -2.9%,–
Cc1ccc(/C=N/NC(=O)c2nc3nc(C)cc(C)n3n2)cc1,inactive: -30.9%,–
CC(C)c1ccc(OCc2ccc(C(=O)N(C)C)o2)cc1,inactive: 24.5%,–
Cn1c(=O)c2ccccc2n(CC(=O)NCCC2=CCCCC2)c1=O,inactive: -8.28%,–
COc1ccccc1NC(=O)COC(=O)C1CC2CCCC(C1)C2=O (stereo not given),inactive: 14.1%,–
Cc1cc(NC(=O)C2CC(=O)N(c3ccccc3Cl)C2)no1 (stereo not given),inactive: 2.88%,–
CCOc1cc(Br)cc(/C=N/NC(=O)c2cccnc2)c1O,inactive: -8.84%,–
CCOc1ccccc1NC(=O)C(C)CC (stereo not given),inactive: 17.7%,–
O=C(CCCOc1ccc(Cl)cc1)Nc1cccc(C(=O)O)c1,inactive: -1.93%,–
COc1cc2[nH]c(Cl)c([N+](=O)[O-])c2cc1OC,inactive: 20.6%,–
CC(=O)c1ccc(NC(=O)Cn2c(=O)oc3ccccc32)cc1,inactive: 8.37%,–
CCN(CC)S(=O)(=O)c1ccc(C)c(C(=O)Oc2cccc(-c3cnc4ccccc4n3)c2)c1,inactive: 7.86%,–
Cc1nc2nc(C)c(NS(=O)(=O)c3ccc(C(C)(C)C)cc3)c(=O)n2[nH]1,inactive: 2.14%,–
COc1cc(C=O)ccc1Oc1nnnn1-c1ccccc1,inactive: 5.88%,–

Compound,growth rescue (activation),Potency
C/C(CC(=O)Nc1ccc2c(c1)OCO2)=N\NC(=O)c1ccc(N)cc1,inactive: 9.5%,–
CC(NC(=O)C1CCC(C(C)(C)C)CC1)C(c1ccccc1)N1CCOCC1 (stereo not given),inactive: 19.5%,–
Cc1cccc(-c2noc(CCC(=O)NCCc3ccccc3)n2)c1,inactive: 23.6%,–
Cc1onc(C(=O)Nc2c(C)n(C)n(-c3ccccc3)c2=O)c1[N+](=O)[O-],inactive: -7.4%,–
Cc1ccc(NC(=O)c2ccc(=O)[nH]n2)cc1C,inactive: 8.75%,–
CC(C)C1CC(CCN2CCCCC2)(c2ccccc2)CCO1 (stereo not given),inactive: -8.23%,–
COc1ccccc1CNC(=O)C1CCC(=O)N1C(C)C (stereo not given),inactive: 5.36%,–
Cn1c(=O)c2c(ncn2CC(=O)Nc2nccs2)n(C)c1=O,inactive: -7.06%,–
Cc1ccccc1N(CC(=O)NC(C)(C)C)C(=O)CS(=O)CC(=O)Nc1ccc2c(c1)OCO2 (stereo not given),inactive: -14.2%,–
COC(=O)C1(NC(=O)NC23CC4CC(CC(C4)C2)C3)CCCCC1,inactive: -0.0316%,–
CS(=O)(=O)c1ccc(NCCc2ccc(S(N)(=O)=O)cc2)c([N+](=O)[O-])c1,inactive: 8.34%,–
COc1cc(/C=C/c2cc(C(=O)O)c3ccccc3n2)cc(OC)c1O,inactive: 0.61%,–
CCCOc1ccc(NC(=O)C(=O)NCCCn2ccnc2)cc1,inactive: -5.42%,–
CCN(CCNC(=O)C1CCN(S(=O)(=O)c2c(C)noc2C)CC1)c1ccccc1,inactive: -10.6%,–
C(=N\Nc1nc2ccccc2[nH]1)/c1ccncc1,inactive: -4.05%,–
COC(=O)CC(N)c1ccc(Br)cc1 (stereo not given),inactive: -4.39%,–
Cc1cccc(NC(=O)c2ccc(NCCO)c([N+](=O)[O-])c2)n1,inactive: 3.22%,–
CN(C)c1ccc(C2C=C(c3ccc(Cl)cc3OC(F)F)Nc3ncnn32)cc1 (stereo not given),inactive: 21.9%,–
CCCCCCC(=O)NNC(=O)c1c(O)c2ccccc2n(CC)c1=O,inactive: -45.6%,–
Cc1ccnc(NC(NC(=O)C(C)C)(C(F)(F)F)C(F)(F)F)c1,inactive: -6.85%,–
CC1CCN(S(=O)(=O)N2CCCC(C(=O)NCc3ccc(F)cc3)C2)CC1 (stereo not given),inactive: -4.93%,–
CC(=O)OCCCNc1cc(Sc2ccc(Cl)cc2)c2nonc2c1[N+](=O)[O-],inactive: -22.9%,–

Compound,growth rescue (activation),Potency
O=C(c1ccc(C(F)(F)F)cc1)C1CCCN(C(=O)c2cnccn2)C1 (stereo not given),inactive: 6.24%,–
COC(=O)c1cc(C(=O)NCCN2C(=O)S/C(=C\c3cccs3)C2=O)cc([N+](=O)[O-])c1,inactive: 3.54%,–
Cc1ccc(CN2CCC(n3nccc3NC(=O)c3ccc4c(c3)OCO4)CC2)o1,inactive: -6.64%,–
CCN(C(=O)Cc1c(C(=O)O)[nH]c2ccccc12)c1ccc(OC)cc1,inactive: 3.18%,–
Fc1ccccc1NC(=S)N1CCN(Cc2ccc3c(c2)OCO3)CC1,inactive: -8.27%,–
CC(C)c1ccc(OCCCCN2CCCCC2)cc1,inactive: -38.1%,–
COc1cc(CNC(=O)Nc2nc(C(N)Cc3ccc(Cl)cc3)cs2)cc(OC)c1OC (stereo not given),inactive: 8.15%,–
Cc1nc2ccc(-c3nc4ccccc4[nH]3)cc2[nH]1,inactive: -0.81%,–
Clc1ccccc1-c1nnc(-c2ccc3c(c2)OCO3)o1,inactive: 7.34%,–
CCCC(C(=O)NC(C)(C)CC)N(Cc1ccco1)C(=O)CNS(=O)(=O)c1ccccc1 (stereo not given),inactive: -3.73%,–
COc1ccc(NC(=O)c2ccc3c(c2)C(=O)N(CC2CCCO2)C3=O)cc1 (stereo not given),inactive: 11.4%,–
Clc1ccc2nc(-c3ccccc3)nc(C(Cl)Cl)c2c1,inactive: 1.67%,–
COc1ccc(-c2csc(NCc3ccco3)n2)cc1C,–,active: 17.8 µM
NC(=O)c1ccc(C(=O)c2ccc([N+](=O)[O-])cc2)cc1,inactive: 17.2%,–
CCN(CC)C(=O)/C(=C/c1cccc([N+](=O)[O-])c1)NC(=O)c1ccco1,inactive: 5.28%,–
Cc1cc(C(=O)Cn2nc(C(=O)O)c3ccccc3c2=O)c(C)n1-c1ccc(F)cc1,inactive: 4.07%,–
CC(C)Cn1c(N)c(C(=O)COC(=O)c2ccc(F)cc2)c(=O)n(C)c1=O,inactive: 21.3%,–
O=C(NCc1cccnc1)C(=O)Nc1ccc([N+](=O)[O-])cc1,inactive: 6.93%,–
O=C(N/N=C/c1ccccc1O)NC12CC3CC(CC(C3)C1)C2,inactive: 1.09%,–
Cc1nc2nc(C)c(NS(=O)(=O)c3ccc(C4CCCCC4)cc3)c(=O)n2[nH]1,inactive: 15.2%,–
Cc1ccc(CN2CCN(Cc3ccccn3)CC2CCO)cc1 (stereo not given),inactive: 11.7%,–
CC(=O)c1ccc(N2Cc3ccccc3/C2=N\C(=O)Nc2ccccc2)cc1,inactive: -27.1%,–
